# Reference: the supplement of paper PMC9446081
# About 220 (0.56%) of roughly 39,000 compounds showed activity. The list shows a part of the results.
# Tested on: Escherichia coli K-12 BW25113
# Assay: relative growth (OD600 normalised to plate interquartile mean) (fraction); higher = less growth inhibition, active = 0.2 or less
# Settings: 50 µM; LB; incubation time: overnight (16-24 h)
# 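Note: static incubation at 37 °C against the wild-type strain, values averaged over two biological replicates.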
row,SMILES,relative growth
1,C[C@H](CO)N1C[C@H](C)[C@@H](CN(C)S(=O)(=O)c2cn(C)cn2)Oc2c(NS(=O)(=O)c3cccs3)cccc2C1=O,inactive: 0.992
2,CC(C)Oc1cccc(-n2c(CCc3c[nH]c4ccc(Br)cc34)nc3ccccc3c2=O)c1,inactive: 1.03
3,O=C(N[C@@H]1CC[C@H](CCNS(=O)(=O)c2ccccc2)O[C@@H]1CO)c1cnccn1,inactive: 0.983
4,COc1ccc2c3c(n(c2c1)C)[C@@H](CO)N(C[C@]13CN(C1)C(=O)c1ccncc1)C(=O)C1CCOCC1,inactive: 0.956
5,C[C@@H]1CCCCO[C@@H](CN(C)C(=O)Nc2ccc(F)cc2)[C@@H](C)CN([C@H](C)CO)C(=O)c2cc(NC(=O)c3ccccc3)ccc2O1,inactive: 1.01
6,CN1C(=O)c2cc(NC(=O)Cc3cccs3)ccc2OC[C@H]2O[C@H](CC(=O)NCCCN3CCOCC3)CC[C@H]21,inactive: 0.98
7,O=C(C[C@@H]1C[C@H]2c3cc(NC(=O)Nc4ccc(C(F)(F)F)cc4)ccc3O[C@H]2[C@@H](CO)O1)NC1CCCCC1,inactive: 1.01
8,O=C(CCCCCNC(=O)OCc1ccc(CO[C@H]2C[C@@H](C3CCCCC3)C=C(C(=O)N3CCN(Cc4ccc5c(c4)OCO5)CC3)O2)cc1)NO,inactive: 0.936
9,Clc1ccc(COC(Cn2ccnc2)c2ccc(Cl)cc2Cl)c(Cl)c1.O=[N+]([O-])O (stereo not drawn),inactive: 0.98
10,N[C@H]1CC[C@H]2CN(Cc3ccc(Cl)c([N+](=O)[O-])c3)C[C@H]21,inactive: 0.972
11,O=C(CCCCCNc1nc(=S)[nH]c2ccccc12)N1CCC(O)(c2cccc(C(F)(F)F)c2)CC1,inactive: 0.913
12,C[C@@H]1CN([C@@H](C)CO)C(=O)c2cccc(NC(=O)Nc3ccc4c(c3)OCO4)c2O[C@@H]1CN(C)S(C)(=O)=O,inactive: 0.983
13,C[C@@H]1CN([C@H](C)CO)C(=O)c2cccc(NS(=O)(=O)c3ccc(F)cc3)c2O[C@H]1CN(C)Cc1ccncc1,inactive: 1
14,C[C@H](CO)N1C[C@H](C)[C@@H](CN(C)Cc2ccccn2)Oc2ncc(C#Cc3ccc(F)cc3)cc2C1=O,inactive: 0.996
15,C[C@@H]1CN([C@@H](C)CO)C(=O)c2cccc(NC(=O)c3nc4ccccc4s3)c2O[C@@H]1CN(C)C(=O)Nc1cccc2ccccc12,inactive: 0.986
16,C=CCC[C@H](Cc1ccc(F)cc1)C(=O)O[C@@H](CNC(=O)[C@@H](CC=C)CC(=O)N(CCO)Cc1ccccc1)c1ccccc1,inactive: 1.07
17,COC(=O)CNC(=O)/C=C/c1ccc(OC)cc1,inactive: 0.994
18,C[C@H](CO)N1C[C@H](C)[C@@H](CN(C)C(=O)Nc2cccc3ccccc23)Oc2ccc(NC(=O)Cn3cnnn3)cc2CC1=O,inactive: 1.01
19,C[C@@H]1CN([C@@H](C)CO)C(=O)c2cc(NS(=O)(=O)c3ccc(Cl)cc3)ccc2O[C@@H](C)CCCCO[C@H]1CN(C)Cc1ccc(C(F)(F)F)cc1,inactive: 1.03

row,SMILES,relative growth
1,COC(=O)c1c2oc(c1C(=O)OC)C(=O)N[C@@H](Cc1ccccc1)Cn1cc(nn1)[C@H](Cc1ccccc1)NC(=O)N[C@@H](CO)CC2,inactive: 0.997
2,CSc1nc2ccc(N)cc2s1,inactive: 1
3,C[C@H](CO)N1C[C@H](C)[C@H](CN(C)Cc2ccc3c(c2)OCCN3C)OCc2ccccc2-c2c(n(C)c3ccccc23)C1=O,inactive: 1
4,C[C@@H]1[C@@H]([Si](C)(C)F)[C@H](CC(=O)N2Cc3ccccc3C[C@H]2CO)O[C@@]12C(=O)N(c1ccccc1)c1ccccc12,inactive: 0.998
5,NCC1CCC(N)C(OC2C(N)CC(N)C(OC3OC(CO)C(O)C(N)C3O)C2O)O1 (stereo not drawn),inactive: 0.947
6,c1ccc(-c2nc3ccccc3o2)nc1,inactive: 0.99
7,CC(=O)Oc1c(C)cccc1C(=O)O,inactive: 0.96
8,C[C@@H]1CN([C@@H](C)CO)C(=O)c2cc(NS(=O)(=O)c3cn(C)cn3)ccc2O[C@@H](C)CCCCO[C@H]1CN(C)S(=O)(=O)c1cn(C)cn1,inactive: 0.979
9,COC[C@H]1C[C@H](c2ccc(NC(=O)CCCCCCC(=O)NO)cc2)O[C@H](c2ccc([C@H]3O[C@@H](COC)C[C@H](c4ccc(NC(=O)CCCCCCC(=O)NO)cc4)O3)cc2)O1,inactive: 0.983
10,O=C(O)[C@H]1CCCC[C@H]1C(=O)N1CCc2ccccc2[C@H]1CNS(=O)(=O)c1ccc([N+](=O)[O-])cc1,inactive: 1.02
11,C[C@H](CO)N1C[C@H](C)[C@@H](CN(C)CC2CCCCC2)Oc2ccc(NC(=O)Nc3ccc(C(F)(F)F)cc3)cc2C1=O,inactive: 0.977
12,COCC(=O)N(C)C[C@H]1Oc2cc(C#C[C@@H](C)O)ccc2S(=O)(=O)N([C@H](C)CO)C[C@@H]1C,inactive: 0.996
13,COc1ccc(S(=O)(=O)Nc2ccc3c(c2)C(=O)N([C@H](C)CO)C[C@H](C)[C@@H](CN(C)S(C)(=O)=O)OCCCC[C@H](C)O3)cc1,inactive: 1.02
14,C[C@@H]1CCCCO[C@H](CN(C)C(=O)Nc2ccc(C(F)(F)F)cc2)[C@H](C)CN([C@@H](C)CO)C(=O)c2cc(NS(=O)(=O)c3ccccc3)ccc2O1,inactive: 1.01
15,C[C@@H]1CCCCO[C@@H](CN(C)S(=O)(=O)c2cccs2)[C@@H](C)CN([C@H](C)CO)C(=O)c2cc(NC(=O)Nc3ccc4c(c3)OCO4)ccc2O1,inactive: 1.02
16,C[C@@H]1CN([C@H](C)CO)C(=O)c2cccc(NC(=O)c3nc4ccccc4s3)c2O[C@H]1CN(C)C(=O)Nc1cccc2ccccc12,inactive: 1.01
17,C[C@H]1CN([C@@H](C)CO)C(=O)c2cccc(NC(=O)Nc3cccc4ccccc34)c2O[C@H]1CN(C)Cc1ccc(C(F)(F)F)cc1,inactive: 1.04
18,C[C@H](CO)N1C[C@H](C)[C@H](CN(C)Cc2cccc(C(F)(F)F)c2)OCc2ccccc2-c2c(n(C)c3ccccc23)C1=O,inactive: 1.03
19,Cc1ccc(S(=O)(=O)Nc2ccc3c(c2)C(=O)N([C@@H](C)CO)C[C@H](C)[C@@H](CN(C)S(=O)(=O)c2ccc(F)cc2)OCCCC[C@H](C)O3)cc1,inactive: 1.02
